Laboratory results as given in PMC4336329 (PLoS ONE, 2015).
Screen size: about 310,000 compounds; about 14,000 (4.5%) showed an effect of 50% or more. The effect is printed as a negative number. The list shows a part of the results.

These compounds were tested against human ether-à-go-go-related gene (hERG) potassium channel (human, UniProt Q12809) (assay: primary screen, population patch clamp on CHO cells stably expressing hERG).
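Further: peak tail current of the secondary pulse compared with the same well before compound.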

Chain of human ether-à-go-go-related gene (hERG) potassium channel (Q12809 whole entry, looked up): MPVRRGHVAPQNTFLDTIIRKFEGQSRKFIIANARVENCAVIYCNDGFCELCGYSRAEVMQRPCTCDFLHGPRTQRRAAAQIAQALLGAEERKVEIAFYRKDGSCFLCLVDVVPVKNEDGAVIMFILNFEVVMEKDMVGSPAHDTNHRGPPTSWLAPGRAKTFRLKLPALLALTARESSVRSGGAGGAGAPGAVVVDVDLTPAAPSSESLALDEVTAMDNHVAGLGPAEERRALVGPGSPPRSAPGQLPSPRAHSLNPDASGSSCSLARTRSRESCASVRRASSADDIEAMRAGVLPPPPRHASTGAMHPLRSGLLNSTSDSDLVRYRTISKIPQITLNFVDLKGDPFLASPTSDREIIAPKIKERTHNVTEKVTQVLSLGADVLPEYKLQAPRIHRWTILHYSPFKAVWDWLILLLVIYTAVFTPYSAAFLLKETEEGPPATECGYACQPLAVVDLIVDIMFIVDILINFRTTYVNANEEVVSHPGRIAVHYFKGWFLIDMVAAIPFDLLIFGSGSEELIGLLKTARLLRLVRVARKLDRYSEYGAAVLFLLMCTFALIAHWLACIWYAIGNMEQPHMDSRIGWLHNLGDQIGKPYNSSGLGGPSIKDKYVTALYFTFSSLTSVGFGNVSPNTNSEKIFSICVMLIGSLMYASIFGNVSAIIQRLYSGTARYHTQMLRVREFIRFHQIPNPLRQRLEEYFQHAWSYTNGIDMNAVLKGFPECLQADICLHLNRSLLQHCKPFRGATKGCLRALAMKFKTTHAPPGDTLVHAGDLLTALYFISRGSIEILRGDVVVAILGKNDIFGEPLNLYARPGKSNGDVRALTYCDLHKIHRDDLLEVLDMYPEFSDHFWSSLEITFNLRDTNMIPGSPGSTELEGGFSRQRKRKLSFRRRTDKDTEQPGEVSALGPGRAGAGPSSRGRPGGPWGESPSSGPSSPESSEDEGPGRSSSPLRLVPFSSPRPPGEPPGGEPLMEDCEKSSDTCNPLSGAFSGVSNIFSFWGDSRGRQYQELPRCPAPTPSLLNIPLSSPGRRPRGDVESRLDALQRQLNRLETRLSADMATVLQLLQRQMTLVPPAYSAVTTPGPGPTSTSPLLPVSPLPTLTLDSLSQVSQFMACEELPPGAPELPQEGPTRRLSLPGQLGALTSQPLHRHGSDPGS

SMILES | hERG current change (%, negative = inhibition) at 10uM
Cc1ccc(N/C(N)=N/c2nc3c(c(=O)[nH]2)CCCC3)c(C)c1 | -1.9%
CC1CCCN(c2ccc(C(=O)NCc3ccco3)cc2[N+](=O)[O-])C1 (stereo not shown) | -44.4%
Cc1nc2c(C)cccn2c1C(=O)c1ccccc1.Cl | -0.644%
O=c1c2cc(N3CCOCC3)ccc2[nH]c(=S)n1CCN1CCCC1 | -6.02%
CC1(C)CC(=O)C(=Cc2cn(-c3ccccc3)nc2-c2ccccc2)C(=O)C1 | -24.1%
Cc1ccc(C)c(NC(=O)c2ccc(S(=O)(=O)C(F)F)cc2)c1 | -4.53%
O=c1[nH]c2ccccc2n1C1CCCCC1 | -5.49%
O=c1cc(CO)[nH]cc1OCc1ccccc1 | 19.7%
O=C(Nc1ccc(S(=O)(=O)N2CCN(c3ccccc3)CC2)cc1)c1cccs1 | 8.53%
CC(C)OC(=O)CC(=O)c1sc2nc3c(cc2c1N)CN(C)CC3 | -0.997%
Cc1ccc2c(CC(=O)OCn3nnc4ccccc4c3=O)coc2c1 | 23.2%
Cc1ccc(-c2csc(/C(C#N)=C/Nc3ccccc3SC(F)(F)F)n2)c(C)c1 | 19.7%
CSc1nc(=S)n(-c2cc(C)ccc2C)c(C)c1C(C)=O | 15.1%
COc1ccc(C2c3c(ncn(CCCO)c3=N)Oc3ccc4ccccc4c32)cc1OC (stereo not shown) | -28.8%
Cc1c(Br)c([N+](=O)[O-])nn1CC(=O)NCCc1ccc(Cl)cc1 | -17.9%
O=[N+]([O-])/C=C1/NCCN1Cc1ccc(Cl)nc1 | -1.96%
COc1ccc(Cl)cc1C(=O)Nn1c(C)nc2ccccc2c1=O | 10.3%
Cc1cccnc1NC(=O)CN1C(=O)c2ccccc2S1(=O)=O | 4.78%
Cc1sc2nc(SCC(N)=O)n(C)c(=O)c2c1C | 9.48%
CCCCn1c(N)c(N(CC(C)C)C(=O)CCCc2nc3ccccc3c(=O)[nH]2)c(=O)[nH]c1=O | 14.2%
CC(CNC(=O)C(C)C)NC(=O)C(C)C (stereo not shown) | 7.92%
Cc1cc(C)cc(C(=O)Nc2ccc(N3CCN(C(=O)c4ccco4)CC3)cc2)c1 | 5.79%

SMILES | hERG current change (%, negative = inhibition) at 10uM
C=CCNC(=S)N1CCC(C(=O)c2ccc(Cl)cc2)CC1 | -37.8%
Cc1ccsc1/C=C1\SC(N2CC(C)OC(C)C2)=NC1=O (stereo not shown) | -3.26%
Cc1cc(C)c(C)c(S(=O)(=O)NCc2ccncc2)c1C | 3.88%
O=C(NC1CCCCC1)c1ccc(S(=O)(=O)NCc2cccnc2)cc1 | 5.88%
CC(CCN1CCN(c2ccc(F)cc2)CC1)c1ccccc1 (stereo not shown) | -64.3%
O=C1CCCN1c1ccc(C(=O)N(Cc2nnc(-c3ccc(Cl)cc3)o2)C2CC2)cc1 | -38.8%
Cc1c(C(=O)N2CCCCCC2)c(S(=O)(=O)Nc2ccc(F)cc2)c(C)n1C | 10.6%
COc1ccc(C(C(=O)NC2CCCC2)N(Cc2cccnc2)C(=O)c2snc(C(N)=O)c2N)cc1 (stereo not shown) | -20.3%
CC(=O)c1ccc(NC(=O)c2cnn3c(C(F)F)cc(C4CC4)nc23)cc1 | 11.1%
Cc1ccc(C(NC(=O)c2ccccc2)C(Cl)Cl)cc1 (stereo not shown) | 9.04%
Cc1c(/C(O)=C2/C(=O)C(=O)N(CCN(C)C)C2c2ccc(C(C)C)cc2)cnn1-c1ccccc1 (stereo not shown) | 5.44%
CC(C)(C)OC(=O)NCCCCCc1nnc(SCc2ccccc2)o1 | -9.97%
COc1cc(C(=O)Nc2ccc(N3CCN(C(=O)c4ccc(C)cc4)CC3)cc2)cc(OC)c1OC | -30.3%
NC(=O)NC1NC(=O)NC1=O (stereo not shown) | 11.9%
CCC(C(=O)N1CCCCCC1)n1nc(C)n2c(cc3occc32)c1=O (stereo not shown) | 11.8%
CS(=O)(=O)c1ccc(Cl)c(NC(=O)c2cc(=O)[nH]c3ccc(S(=O)(=O)N4CCOCC4)cc23)c1 | 0.653%
COc1ccc(OCC(=O)Nc2cccc(-c3nc4ccccc4o3)c2)cc1 | -0.773%
COC(=O)c1ccc(CNC(=O)c2ccc3c(c2)S(=O)(=O)N=C2CCCCCN23)cc1 | -10.5%
CCOC(=O)c1c(C)[nH]c(N=Nc2cccc(OC)c2)c1C | -14.6%
COc1ccc(CNC(=O)C2CCCN(C(=O)Nc3ccc(OC)cc3)C2)cc1 (stereo not shown) | -9.81%
COc1ccc(S(=O)(=O)N2CCOCC2)cc1NC(=O)Cc1sc(C)nc1-c1ccc(F)cc1 | 13.3%
COc1cc(/C=C/C(=O)c2ccc(F)cc2)cc(OC)c1OC | 9.37%

SMILES | hERG current change (%, negative = inhibition) at 10uM
O=C(O)c1nc(Cl)c(Cl)c(N/N=C/c2ccccc2C(F)(F)F)c1Cl | 16.3%
Cc1nc(-c2ccc(NC(=O)C3CCCCC3)cc2)cs1 | -0.845%
Cn1ccnc1C(OC(=O)c1ccc(Cl)cc1)C(F)(F)F (stereo not shown) | -11.9%
O=C(NCCS(=O)(=O)N1CCCCC1)c1ccc2c(c1)OCO2 | -12.6%
CCN1CCN(c2cc(N3CCCC3)c([N+](=O)[O-])cc2F)CC1 | -19.8%
CC(C)=CCc1c(O)c(CC=C(C)C)c2occ(-c3ccc(O)cc3)c(=O)c2c1O | 4.77%
CCCn1c(-c2ccccc2)cc(SC)c(C#N)c1=O | 17.3%
CCNC(=O)c1ccc(CSc2nc3ccccc3s2)cc1 | -0.267%
COc1ccc(CNC(=O)CCC(=O)N2CCN(C(C)=O)CC2)cc1 | 14.3%
O=C(c1cccs1)N1CCC(Cc2ccccc2)CC1 | -13.8%
COc1ccc(CCNS(=O)(=O)c2ccc3c(c2)OCCO3)cc1 | 2.19%
Cc1cccc(Oc2nc(-c3ccncc3)nc3ccccc23)c1 | 11.9%
COc1ccc(C(C)(C)C)cc1NC(=O)CNc1cccc2ccccc12 | -1.91%
O=C(COC(=O)c1ccc(Br)c(S(=O)(=O)N2CCOCC2)c1)NCC1CCCO1 (stereo not shown) | -14.6%
COC(=O)c1ccc(Cn2nnc3c(=O)[nH]c(C4CCN(S(=O)(=O)c5cc(C)ccc5C)CC4)nc32)cc1 | 17.9%
CCc1ccc2c(c1)C1(SC(NC(C)=O)=NN1C(C)=O)C(=O)N2CC (stereo not shown) | -0.0665%
CCOC(=O)N1CCN(CCC(=O)c2ccc(Br)cc2)CC1.Cl | -64.6%
O=C(Cn1cnc2c(nnn2Cc2ccccc2)c1=O)Nc1ccc2c(c1)OCCO2 | -17.2%
C=CCc1cc(OC)ccc1OCCN1CC(C)OC(C)C1.O=C(O)C(=O)O (stereo not shown) | -9.85%
Cc1ccc(N2C(=O)C3CCCN3C2=S)cc1Cl (stereo not shown) | -5.29%
CC1(C)C2CCC1(C)C(NC1=NCCC1)C2.Cl (stereo not shown) | -2.27%
O=C(Nc1ccc(-c2ccc3nncn3n2)cc1)C1CCCCC1 | -28.5%

SMILES | hERG current change (%, negative = inhibition) at 10uM
O=C(c1cccc(C(=O)N2CCc3ccccc32)n1)N1CCc2ccccc21 | 1.92%
Cc1cc(C)nc(/N=C2\NC(=O)CC(C(=O)O)N2c2cccc(Cl)c2)n1 (stereo not shown) | 16.5%
Cc1ccc(C(=O)N/C(=C\c2ccco2)C(=O)NCc2cccnc2)cc1 | -65.2%
COc1cc(CNC2CCCCC2OC)cc(OC)c1.O=C(O)C(=O)O (stereo not shown) | -14.4%
CCOc1ccc(N(CC(=O)Nc2ccc(CC)cc2)S(=O)(=O)c2c(C)[nH]c(=O)[nH]c2=O)cc1 | 22%
CCN(c1ccc(OC)cc1)S(=O)(=O)c1nnc(NC(=O)c2ccc(C)cc2)s1 | 15.8%
Cc1noc(C)c1S(=O)(=O)N1CCC(C(=O)NCCCN2CC(C)CC(C)C2)CC1 (stereo not shown) | 10.3%
CC(c1ccco1)N(C(=O)c1ccc(S(=O)(=O)N2CCCCC2)cc1)c1ccccn1 (stereo not shown) | -4.75%
O=C(O)CCn1c(=O)n(CCC(=O)O)c(=O)n(CCC(=O)O)c1=O | 17.3%
CC(CC(=O)Nc1ccc(-c2ccno2)cc1)n1cccn1 (stereo not shown) | -4.75%
CN(C(=O)COC(=O)c1cccc(F)c1)c1ccccc1 | 13.3%
COc1ccc(-c2nc3cnccn3c2Nc2ccc3c(c2)OCO3)cc1 | -52.7%
CCOC(=O)Nc1sc2c(c1C#N)CCCC2 | -12.7%
O=C(Nc1ccc(F)cc1F)NC1CC1 | 14.8%
Cc1ccc(-c2nc(C)sc2CC(=O)OCC(=O)Nc2c(F)cccc2F)cc1 | -5.28%
CC(C)C(=O)Nc1nnc(S(=O)(=O)N2CCCc3ccccc32)s1 | 3.84%
CCCCn1nnnc1SCC(=O)N(CC)CC | 10.4%
CCOC(=O)c1c(NC(=O)CSc2nnc(-c3cccnc3)n2Cc2ccco2)sc(C)c1C | -24.7%
O=C(Nc1ccncc1)c1ccc(Br)cc1 | -4.86%
Cc1cccc(-n2cnc3cc([N+](=O)[O-])ccc32)c1 | -51.9%
CCN(CC)S(=O)(=O)c1ccc(NCCc2ccccn2)nc1 | 12.3%
COC(=O)CN(c1ccc2c(c1)OCCO2)S(=O)(=O)c1ccccc1 | -22.2%
